B1: Caulobacter ParB omega fusion; a variant is named by its letters at X, in order, B8GW30 (parent)
chain: MESVVVGEPGMSEGRRGLGRGLSALLGEVDAAPAQAPGEQLGGSREAPIEILQRNPDQPRRTFREEDLEDLSNSIREKGVLQPILVRPSPDTAGEYQIVAGERAWRAAQRAGLKTVPIMVRELDDLAVLEIGIIENVQRADLNVLEEALSYKVLMEKFERTQENIAQTIGKSXSHVANXMRLLXLPDEVQSYLVSGELTAXHARAIAAAADPVALAKQIIEGGLSVRETEALARKAPNLSAGKSKGGRPPRVKDTDTQALESDLSSVLGLDVSIDHRGSTGTLTITYATLEQLDDLCNRLTRGI

The full ranking holds about 81,000 sequences; the median of “one-hybrid fitness for binding parS DNA” is about -0.17, and the highest 2% start at about 0.51. The list shows a part of the results. Some results are limits rather than exact numbers.

The variants in the assay derive from B1. The assay is described as follows: one-hybrid fitness for binding parS DNA (scaled: cognate 1, non-cognate 0); higher = stronger binding. Conditions: with parS DNA site. In outline:
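On M9-minus-histidine containing 0.1 mM IPTG and 5 mM 3-AT, E. coli USO cells with a HIS3 reporter, site 19 bp from the promoter, grew 48 hours at 37°C to select Caulobacter ParB libraries randomised at four specificity codons. Plasmids from before and after were Illumina-sequenced, with three replicate libraries pooled and variants under 10 reads left out. Fitness is the log change in variant-to-wild-type read ratio, rescaled against cognate and non-cognate.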
With QCHC, the “one-hybrid fitness for binding parS DNA” value is not above 0.2.
With PFSV the figure was not above 0.2.
The same measure for TERG: not above 0.2; for ASVR: not above 0.2; for RLDH: not above 0.2.
The same measure for SSGL: not above 0.2; for RLDF: 0.229.
In the case of YFLS, the “one-hybrid fitness for binding parS DNA” value is not above 0.2.
With LSPM the figure was not above 0.2; with VCND, not above 0.2; with TFMS, not above 0.2.
As for SVKA, the “one-hybrid fitness for binding parS DNA” value is not above 0.2.
As to FWGY, the “one-hybrid fitness for binding parS DNA” value was not above 0.2.
Take YMCE: the “one-hybrid fitness for binding parS DNA” value was not above 0.2.
As for ATPI, the “one-hybrid fitness for binding parS DNA” value is not above 0.2.
The same measure for ITKN: not above 0.2; for PAVQ: not above 0.2; for FAAF: not above 0.2.
As for IRGI, the “one-hybrid fitness for binding parS DNA” value is not above 0.2.
With SRWT the figure was not above 0.2; with WRVF, not above 0.2; with SRHW, not above 0.2.
With NAEF the figure was not above 0.2; with HIMG, not above 0.2.
With QNKD the figure was not above 0.2.
Turning to PEGP, the “one-hybrid fitness for binding parS DNA” value is not above 0.2.
With PLYM the figure was not above 0.2; with TKKS, not above 0.2; with ICKR, not above 0.2.
As to CGDR, the “one-hybrid fitness for binding parS DNA” value is not above 0.2.
The same measure for FPKC: not above 0.2; for MIGS: not above 0.2; for SKLI: not above 0.2.
The same measure for SQYC: not above 0.2; for PACC: not above 0.2.
Take KKSR: the “one-hybrid fitness for binding parS DNA” value is not above 0.2.
As to HRMY, the “one-hybrid fitness for binding parS DNA” value was not above 0.2.
In the case of LCAD, the “one-hybrid fitness for binding parS DNA” value was not above 0.2.
For the variant NFQS, the “one-hybrid fitness for binding parS DNA” value was not above 0.2.
In the case of ERTY, the “one-hybrid fitness for binding parS DNA” value was not above 0.2.
With QVSS, the “one-hybrid fitness for binding parS DNA” value was not above 0.2.
The same measure for AILR: not above 0.2.
Take MKLE: the “one-hybrid fitness for binding parS DNA” value was not above 0.2.
Consider CHEA, for which the “one-hybrid fitness for binding parS DNA” value is not above 0.2.
The same measure for LCPQ: not above 0.2; for FRTV: not above 0.2; for CVCC: not above 0.2.
The same measure for GVRG: not above 0.2.
The same measure for PLCN: not above 0.2.
As to VGPG, the “one-hybrid fitness for binding parS DNA” value is not above 0.2.
With VQQR the figure was not above 0.2; with WNNS, not above 0.2.
In the case of LRED, the “one-hybrid fitness for binding parS DNA” value was not above 0.2.
With IKIT the figure was not above 0.2; with WDDG, not above 0.2.
As to QATS, the “one-hybrid fitness for binding parS DNA” value was not above 0.2.
With DITV the figure was not above 0.2.
LGQG: the “one-hybrid fitness for binding parS DNA” value is not above 0.2.
For GRCA, the “one-hybrid fitness for binding parS DNA” value was not above 0.2.
Turning to DFLG, the “one-hybrid fitness for binding parS DNA” value is not above 0.2.
As to TGLV, the “one-hybrid fitness for binding parS DNA” value was not above 0.2.
The same measure for RTAV: not above 0.2; for ASVE: not above 0.2; for QRDC: not above 0.2.
In the case of MTLD, the “one-hybrid fitness for binding parS DNA” value was not above 0.2.
Consider YPII, for which the “one-hybrid fitness for binding parS DNA” value is not above 0.2.
In the case of ALAD, the “one-hybrid fitness for binding parS DNA” value is not above 0.2.
The same measure for HCKF: not above 0.2; for KCIC: not above 0.2; for LEKY: not above 0.2.
The same measure for KYLF: not above 0.2.
With REDA the figure was not above 0.2.
NKAN: the “one-hybrid fitness for binding parS DNA” value was not above 0.2.
With WDSL the figure was not above 0.2.
With VVIR the figure was not above 0.2.
Turning to LRRH, the “one-hybrid fitness for binding parS DNA” value was not above 0.2.
With GPYL the figure was not above 0.2; with TRPV, not above 0.2.
For the variant DGIV, the “one-hybrid fitness for binding parS DNA” value was not above 0.2.
QWMC: the “one-hybrid fitness for binding parS DNA” value was not above 0.2.
As for MYMC, the “one-hybrid fitness for binding parS DNA” value was not above 0.2.
Consider EYNR, for which the “one-hybrid fitness for binding parS DNA” value was not above 0.2.
As to DWCS, the “one-hybrid fitness for binding parS DNA” value is not above 0.2.
On to GMQS, for which the “one-hybrid fitness for binding parS DNA” value was not above 0.2.
The same measure for WSGR: not above 0.2; for FEYC: not above 0.2; for YPSL: not above 0.2.
With CLSI the figure was not above 0.2; with HQPL, not above 0.2.
With CSAS the figure was not above 0.2.
Regarding AMAV, the “one-hybrid fitness for binding parS DNA” value is not above 0.2.
Regarding NQAD, the “one-hybrid fitness for binding parS DNA” value was not above 0.2.
With DFKD the figure was not above 0.2.
The same measure for SRAT: not above 0.2; for THCT: not above 0.2.
For the variant PLVM, the “one-hybrid fitness for binding parS DNA” value is not above 0.2.
The same measure for NDKA: not above 0.2; for YKQM: not above 0.2.
For the variant SHTM, the “one-hybrid fitness for binding parS DNA” value was not above 0.2.
With TDHK the figure was not above 0.2; with RWYE, not above 0.2; with TNMY, not above 0.2.
For EFVR, the “one-hybrid fitness for binding parS DNA” value is not above 0.2.
The same measure for ACWR: not above 0.2.
With RVED the figure was not above 0.2.
With NYTV the figure was not above 0.2; with AVDC, not above 0.2.
As for PACF, the “one-hybrid fitness for binding parS DNA” value was not above 0.2.
With QNPC the figure was not above 0.2; with IADC, not above 0.2.
With TDRG the figure was not above 0.2; with VYRF, not above 0.2.
The same measure for KRDR: not above 0.2; for RYQL: not above 0.2.
As for AQAT, the “one-hybrid fitness for binding parS DNA” value is not above 0.2.
On to VVLL, for which the “one-hybrid fitness for binding parS DNA” value was not above 0.2.
The same measure for HADW: not above 0.2; for AARL: not above 0.2.
The same measure for PLCC: not above 0.2.
With MRGT the figure was not above 0.2; with EPIM, not above 0.2; with CLKR, not above 0.2.
On to KTGF, for which the “one-hybrid fitness for binding parS DNA” value was not above 0.2.
With LNSS the figure was not above 0.2; with LNGF, not above 0.2; with QKPD, not above 0.2.
The same measure for AQVL: not above 0.2; for EWMG: not above 0.2; for PDNK: not above 0.2.
As to PCTD, the “one-hybrid fitness for binding parS DNA” value was not above 0.2.
With IFNV the figure was not above 0.2; with THFN, not above 0.2; with GKKG, not above 0.2.
With PFRE the figure was not above 0.2.
In the case of PSYP, the “one-hybrid fitness for binding parS DNA” value is not above 0.2.
Turning to LSNF, the “one-hybrid fitness for binding parS DNA” value is not above 0.2.
As for SYEK, the “one-hybrid fitness for binding parS DNA” value was not above 0.2.
With GDRN the figure was not above 0.2.
With YAER, the “one-hybrid fitness for binding parS DNA” value was not above 0.2.
In the case of IIMG, the “one-hybrid fitness for binding parS DNA” value was not above 0.2.
For the variant YYWL, the “one-hybrid fitness for binding parS DNA” value is not above 0.2.
With CRYF, the “one-hybrid fitness for binding parS DNA” value was not above 0.2.
The same measure for QPDG: not above 0.2; for KCEV: not above 0.2.
FSMT: the “one-hybrid fitness for binding parS DNA” value is not above 0.2.
With SSSY the figure was not above 0.2; with PNVR, not above 0.2; with EFLS, not above 0.2.
EGVS: the “one-hybrid fitness for binding parS DNA” value is not above 0.2.
On to VMGW, for which the “one-hybrid fitness for binding parS DNA” value is not above 0.2.
As for SNLN, the “one-hybrid fitness for binding parS DNA” value was not above 0.2.
With MSIC, the “one-hybrid fitness for binding parS DNA” value is not above 0.2.
With KQHW the figure was not above 0.2.
